Results published in PubChem BioAssay AID2451 (National Center for Advancing Translational Sciences (NCATS), 2010).
About 2,100 (0.72%) of roughly 290,000 compounds were called active. This list was built around the results that the source calls inconclusive (neither active nor inactive); the mix of calls is not that of the screen. The call rests on the fitted dose curve; in most records, active means well fitted inhibition curve with a large enough effect; inconclusive means small, poorly fitted or top-dose-only effect, or effect the other way; inactive means flat fitted curve, though single readings scatter. Potencies beside an inconclusive call are fits to weak or partial responses and may not hold up.
Further: nearly all actives have a fitted effect of over 55% in size.
On the % scale 0 is the no-effect control and ±100 the full control effect; potency means the concentration at half of the fitted maximal effect; tags describe the fitted curve by direction and shape.

The molecules below were run against Fructose-bisphosphate aldolase (Giardia intestinalis (strain ATCC 50803 / WB clone C6)) (UniProt A8B2U2) (assay: qHTS Assay for Inhibitors of Fructose-1,6-bisphosphate Aldolase from Giardia Lamblia). Settings: purified Giardia FBPA; activity, negative = inhibition: at 59.6 µM (top of the series) unless noted.
Chain of UniProt A8B2U2 (A8B2U2 whole entry, looked up): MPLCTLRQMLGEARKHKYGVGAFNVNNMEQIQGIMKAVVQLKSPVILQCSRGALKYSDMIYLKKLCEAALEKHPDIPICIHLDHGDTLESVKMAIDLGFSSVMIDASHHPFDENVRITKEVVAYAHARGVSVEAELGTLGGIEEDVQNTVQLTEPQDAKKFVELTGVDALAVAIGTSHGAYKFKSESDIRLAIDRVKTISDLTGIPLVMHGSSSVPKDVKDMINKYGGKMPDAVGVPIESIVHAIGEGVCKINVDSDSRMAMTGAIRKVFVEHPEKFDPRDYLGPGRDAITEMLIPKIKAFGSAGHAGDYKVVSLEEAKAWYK
Method in brief: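 Giardia FBPA (40 nM reagent) was preincubated 10 min at RT with compound (up to 57.5 uM final), then substrate plus GAPDH/TPI/NAD/arsenate coupling system with diaphorase/resazurin was added; resorufin fluorescence (525/598 nm) was read after 20 min.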
`COc1cc(N)c(Cl)cc1C(=O)N[C@@H]1CCN(CCCOc2ccc(F)cc2)C[C@@H]1OC` was tested, and the “activity, negative = inhibition” value was inactive: 1.62%.
For `CCc1ccc(OCC(O)CN2CCN(c3ccccn3)CC2)cc1` (stereo not drawn), the Potency was inconclusive: 22.4 µM [inhibitor, partial curve].
With `O=c1c2ccccc2nc(-c2cccs2)n1-c1ccccc1` the “activity, negative = inhibition” value was inactive: 4.82%.
In the case of `Nc1cnn(Cc2ccccc2F)c1`, the Potency is reported as inconclusive: 17.7 µM [inhibitor, single point].
`CCN(CC)c1ccc2c(cc1=O)[C@@H](NC)CCc1cc(OC)c(OC)c(OC)c1-2` was tested, and the “activity, negative = inhibition” value was inactive: -4.83%.
With `Cc1ccccc1C(=O)N=c1c(C#N)cc2c(=O)n3cccc(C)c3nc2n1Cc1ccco1` the “activity, negative = inhibition” value was inactive: -0.533%.
In the case of `Cn1cc(CN2CC3C[C@@H]4CC2C[C@H](C3)C4)c(-c2ccc3c(c2)OCCO3)n1`, the Potency is reported as inconclusive: 17.7 µM [inhibitor, single point].
In the case of `COc1cc2c(cc1CN1CCN(C(=O)c3cc(OC)c(OC)c(OC)c3)CC1)OCO2`, the Potency is reported as inconclusive: 15.8 µM [inhibitor, partial curve].
`COc1ccc(CCn2c(NN=C3CCCC3)nc3c2c(=O)[nH]c(=O)n3C)cc1` was tested, and the Potency was inconclusive: 19.9 µM [inhibitor, partial curve].
With `COc1cc(CNc2ccc(N3CCCC3)cc2)ccc1OCc1ccccc1` the Potency was inconclusive: 0.792 µM [inhibitor, full curve].
With `CCOC(=O)c1oc2ccccc2c1CN1CCCCC1` the “activity, negative = inhibition” value was inactive: 0.134%.
With `NC(=O)CI` the Potency was inconclusive: 31.5 µM [inhibitor, single point].
`CC(C)OCCCn1c(=S)[nH]c2ccc(N3CCOCC3)cc2c1=O` was tested, and the Potency was inconclusive: 7.92 µM [inhibitor, full curve].
For `CCn1c(CCc2ccccc2)nc2ccccc21`, the Potency was active: 14.1 µM.
`N#Cc1c2n(c(=S)n(-c3ccccc3[N+](=O)[O-])c1=O)CCCCC2` was tested, and the Potency was inconclusive: 19.9 µM [inhibitor, partial curve].
For `CCCCOc1ccccc1N1CCN(CCCN2C(=O)C3CCCN3C2=O)CC1` (stereo not drawn), the Potency was inconclusive: 25.1 µM [inhibitor, partial curve].
For `Cc1cccc(-c2c3c(=O)n(C)c(=O)n(C)c3cn2-c2ccccc2O)c1`, the Potency was active: 12.6 µM.
In the case of `O=C(CNc1ccccc1)Nc1ccc(F)cc1`, the Potency is reported as inconclusive: 19.9 µM [inhibitor, partial curve].
In the case of `Cc1cc(C)c(S(=O)(=O)Nc2nnc(CC(C)C)s2)c(C)c1`, the Potency is reported as inconclusive: 28.2 µM [inhibitor, partial curve].
`Cn1cc(Cl)c(C(=O)OCC(=O)Nc2nc(-c3ccc(Br)cc3)cs2)n1` was tested, and the “activity, negative = inhibition” value was inactive: 2.5%.
In the case of `CCC1CCCCN1C(=S)NC(=O)c1ccc(F)c(S(=O)(=O)N2CCOCC2)c1` (stereo not drawn), the Potency is reported as inconclusive: 25.1 µM [inhibitor, single point].
With `CC(=O)OCCCN1c2ccccc2Nc2nnc(-c3ccccc3)cc21` the “activity, negative = inhibition” value was inactive: -6.34%.
With `CCN(CC(=O)Nc1ccccc1C(=O)Nc1ccccc1)Cc1nc2ccccc2c(=O)[nH]1` the Potency was inconclusive: 14.1 µM [inhibitor, partial curve].
With `Cc1cccc(NS(=O)(=O)c2ccc(NC(=O)CN(c3cc([N+](=O)[O-])ccc3C)S(C)(=O)=O)cc2)c1` the “activity, negative = inhibition” value was inactive: -1.99%.
With `COC(=O)c1ccc(CC(=O)c2c(C)cc(O)cc2O)o1` the Potency was active: 15.8 µM.
`CC1CCN(C2=C(NS(=O)(=O)c3ccccc3)C(=O)c3ccccc3C2=O)CC1` was tested, and the Potency was inconclusive: 14.1 µM [inhibitor, partial curve].
With `COc1ccc(Br)cc1CNc1ccccc1` the Potency was active: 28.2 µM.
In the case of `Cc1ccc(Cn2c(=S)[nH]c3ccc(N4CCOCC4)cc3c2=O)o1`, the Potency is reported as inconclusive: 7.06 µM [inhibitor, partial curve].
`CCC(CC)N1CCN(S(=O)(=O)c2ccc(OC)cc2)CC1` was tested, and the Potency was inconclusive: 17.8 µM [inhibitor, partial curve].
For `O=C(O)c1ccc(NC2=C/C(=N/S(=O)(=O)c3ccccc3)c3ccccc3C2=O)cc1`, the Potency was inconclusive: 0.446 µM [inhibitor, full curve].
`Cc1cc(=O)c2c(O)cc(O)c(C)c2o1` was tested, and the Potency was inconclusive: 12.6 µM [inhibitor, partial curve].
For `CCOC(=O)c1cc(C)sc1/N=C/C1C(=O)NC(=S)NC1=O`, the Potency was inconclusive: 35.4 µM [inhibitor, single point].
With `NCC(O)c1ccc(O)cc1` (stereo not drawn) the Potency was inconclusive: 17.7 µM [inhibitor, single point].
For `CCn1cc(C(=O)O)c(=O)c2cnc(N3CCN(C(=O)Nc4cccc5ccccc45)CC3)nc21`, the Potency was inconclusive: 12.6 µM [inhibitor, partial curve].
In the case of `CCC(=O)c1ccc(OCC(=O)O)cc1`, the Potency is reported as inconclusive: 31.5 µM [activator, single point].
For `CNC(=O)c1[nH]cnc1C(=O)N[C@@H](CC(C)C)C(=O)OC(C)(C)C`, the Potency was inconclusive: 19.9 µM [inhibitor, single point].
With `NS(=O)(=O)c1ccc(CCNCc2cccnc2)cc1` the Potency was inconclusive: 25.1 µM [inhibitor, single point].
With `COCCn1c(C)cc(C(=O)COc2cccnc2[N+](=O)[O-])c1C` the Potency was inconclusive: 1.77 µM [inhibitor, full curve].
`Cc1ccc(/C=C/c2nc3ccccc3[nH]2)o1` was tested, and the Potency was inconclusive: 15.8 µM [inhibitor, single point].
With `CCN1CCN(CCC(=O)Nc2ccc(Br)c(C)c2)CC1` the Potency was inconclusive: 31.6 µM [inhibitor, partial curve].
`C=CCOc1c(CNn2cn[nH]c2=S)cccc1OC` was tested, and the Potency was inconclusive: 1.58 µM [inhibitor, partial curve].
In the case of `Cc1cc(O)ccc1NC(=S)NC(=O)c1cncc(Br)c1`, the “activity, negative = inhibition” value is reported as inactive: 0.923%.
With `O=C(O)CC(CC(=O)Nc1nncs1)c1ccccc1` (stereo not drawn) the “activity, negative = inhibition” value was inactive: -1.34%.
For `COc1ccc(N=Cc2c(O)c3ccccc3n2C(C)=O)cc1`, the Potency was inconclusive: 17.7 µM [inhibitor, single point].
With `O=C(CCC(=O)Nc1ccc(F)cc1)N/N=C/c1cccnc1` the “activity, negative = inhibition” value was inactive: 6.19%.
With `CCOC(=O)c1ccc(NC(=S)NNC(=O)COC)cc1` the Potency was inconclusive: 25.1 µM [activator, single point].
In the case of `CCCN1CCC(=O)N(C(CSc2ccc(Br)cc2)Cc2ccccc2)CC1` (stereo not drawn), the “activity, negative = inhibition” value is reported as inactive: 0.09%.
In the case of `CN(C)CCCNc1ncnc2sc(-c3ccccc3)cc12`, the Potency is reported as inconclusive: 12.6 µM [inhibitor, partial curve].
`COc1ccccc1-n1c(-c2cn(C)nc2C)n[nH]c1=S` was tested, and the Potency was inconclusive: 7.92 µM [inhibitor, partial curve].
In the case of `Cc1nccn1CCOc1ccc(Cl)cc1`, the Potency is reported as active: 25.1 µM.
With `CCCc1ccc(OCC(O)CN2CCCC2)cc1` (stereo not drawn) the Potency was inconclusive: 15.8 µM [inhibitor, partial curve].
In the case of `COc1ccc(C(=O)NNC(=S)NC(=O)c2cccs2)cc1`, the Potency is reported as inconclusive: 39.8 µM [activator, single point].
For `CC(C)c1ccc(S(=O)(=O)N2CCN(CC(=O)c3ccc(O)c(O)c3)CC2)cc1`, the Potency was active: 12.6 µM.
`CC(C)CCn1c(NCCc2ccccc2)nc2c1c(=O)n(C)c(=O)n2C` was tested, and the “activity, negative = inhibition” value was inactive: -3.47%.
With `CSc1nc(C)cc(OCCNS(=O)(=O)c2cc(C)ccc2C)n1` the “activity, negative = inhibition” value was inactive: 3.6%.
With `CCOC(=O)/C(C#N)=C1\CC2CCC1(C)C2(C)C` (stereo not drawn) the Potency was inconclusive: 7.92 µM [inhibitor, partial curve, poor fit].
For `Clc1ccc(SCCCN2CCCCC2)cc1`, the Potency was inconclusive: 6.29 µM [inhibitor, partial curve].
For `COc1cccc(/C=N/NC(N)=S)c1OS(=O)(=O)c1ccccc1`, the Potency was inconclusive: 17.7 µM [inhibitor, partial curve].
`COc1cccc2c(=O)c3cccc(N)c3[nH]c12` was tested, and the Potency was active: 1.77 µM.
`Cc1oc(C)c2c(=O)ccc3c(c12)OC(N)=C(C#N)C3c1ccc(F)cc1` (stereo not drawn) was tested, and the Potency was active: 5.62 µM.
In the case of `CCC(Sc1nc2ncccc2[nH]1)C(=O)N1CCOCC1` (stereo not drawn), the Potency is reported as inconclusive: 3.55 µM [inhibitor, partial curve].
For `COc1ccc(NC(=O)CSc2nc3sc4c(c3c(=O)n2-c2ccc(OC)cc2)CCN(C)C4)cc1`, the Potency was inconclusive: 39.8 µM [inhibitor, single point].
In the case of `COCCNC(=S)N/N=C/c1ccccc1C(=O)O`, the Potency is reported as inconclusive: 15.8 µM [inhibitor, partial curve].
For `O=C(CNC1=NCCC1)c1ccc(Cl)cc1`, the Potency was inconclusive: 6.29 µM [inhibitor, partial curve].
For `COc1ccc(C(=O)O)cc1S(=O)(=O)N(CCc1ccccc1)Cc1ccccc1`, the Potency was inconclusive: 17.7 µM [activator, single point].
`COc1cc(OC)cc(C(=O)NCc2ccc3[nH]c(C)cc3c2)c1` was tested, and the “activity, negative = inhibition” value was inactive: -3.83%.
With `N#Cc1c(SC(C(=O)O)c2ccccc2)nc2c(c1-c1cccs1)CCCC2` (stereo not drawn) the Potency was inconclusive: 22.3 µM [activator, single point].
With `COc1ccc(C(CCN2CCN(c3ccccc3)CC2)c2c(OC)cc(OC)c3c(-c4ccccc4)cc(=O)oc23)cc1` (stereo not drawn) the Potency was “inactive”.
`N#CC1=C(S)N(c2ccccc2)C2(CCCCC2)NC1=O` was tested, and the Potency was inconclusive: 6.29 µM [inhibitor, partial curve].
In the case of `Cc1ccc(C(=O)c2coc3c2C(=O)C(=O)c2ccccc2-3)cc1`, the Potency is reported as active: 2.81 µM.
`CC1CCCN(C(=O)c2nn(C)c3c2CSc2ccccc2-3)C1` (stereo not drawn) was tested, and the Potency was inconclusive: 12.6 µM [inhibitor, partial curve].
In the case of `CC(C)(C)N(CC#CCC(O)(c1ccccc1)C1CCCC1)CCO` (stereo not drawn), the Potency is reported as inconclusive: 17.7 µM [inhibitor, partial curve].
`O=C(NCCc1ccccc1)C1COc2ccccc2O1` (stereo not drawn) was tested, and the “activity, negative = inhibition” value was inactive: 3.68%.
